Assay results reported in article PMC4336329 (PLoS ONE, 2015).
Hit rate of the full screen: of about 310,000 compounds, about 14,000 (4.5%) showed an effect of 50% or more. The effect is printed as a negative number. The list shows a part of the results.

Target: human ether-à-go-go-related gene (hERG) potassium channel (human, UniProt Q12809)
Experiment: primary screen, population patch clamp on CHO cells stably expressing hERG
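Further: peak tail current of the secondary pulse compared with the same well before compound.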

human ether-à-go-go-related gene (hERG) potassium channel, sequence (Q12809 whole entry, looked up): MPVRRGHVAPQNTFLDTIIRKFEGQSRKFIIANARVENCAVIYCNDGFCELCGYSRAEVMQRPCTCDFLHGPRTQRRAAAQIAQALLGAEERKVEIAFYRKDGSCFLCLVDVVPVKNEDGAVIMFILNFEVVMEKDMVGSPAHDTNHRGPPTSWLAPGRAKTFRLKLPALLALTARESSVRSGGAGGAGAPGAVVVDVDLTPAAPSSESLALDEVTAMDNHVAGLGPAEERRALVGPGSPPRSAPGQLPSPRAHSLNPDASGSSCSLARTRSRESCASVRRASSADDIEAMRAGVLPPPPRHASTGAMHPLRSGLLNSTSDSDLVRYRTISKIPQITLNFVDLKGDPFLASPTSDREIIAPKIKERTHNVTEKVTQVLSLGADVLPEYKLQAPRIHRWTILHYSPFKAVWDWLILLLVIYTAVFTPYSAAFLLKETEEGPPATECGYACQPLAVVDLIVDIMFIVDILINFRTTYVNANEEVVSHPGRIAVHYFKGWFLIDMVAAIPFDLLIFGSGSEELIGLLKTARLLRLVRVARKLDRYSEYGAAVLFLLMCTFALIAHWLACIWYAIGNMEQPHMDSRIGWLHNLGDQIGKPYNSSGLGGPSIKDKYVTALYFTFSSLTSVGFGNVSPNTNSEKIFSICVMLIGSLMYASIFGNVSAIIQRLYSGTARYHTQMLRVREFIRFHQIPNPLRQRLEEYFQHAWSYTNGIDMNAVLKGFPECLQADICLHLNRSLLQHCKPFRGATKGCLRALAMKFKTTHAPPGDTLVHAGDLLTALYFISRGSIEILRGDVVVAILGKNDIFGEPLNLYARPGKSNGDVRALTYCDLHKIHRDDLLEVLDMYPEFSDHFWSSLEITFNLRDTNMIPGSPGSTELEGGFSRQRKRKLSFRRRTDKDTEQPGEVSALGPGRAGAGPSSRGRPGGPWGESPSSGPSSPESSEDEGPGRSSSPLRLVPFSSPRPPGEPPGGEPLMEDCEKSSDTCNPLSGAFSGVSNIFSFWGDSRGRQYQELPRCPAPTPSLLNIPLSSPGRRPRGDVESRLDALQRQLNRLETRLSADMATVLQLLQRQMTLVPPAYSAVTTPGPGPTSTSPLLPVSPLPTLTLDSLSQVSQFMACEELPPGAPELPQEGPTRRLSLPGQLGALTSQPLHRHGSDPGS

| SMILES | hERG current change (%, negative = inhibition) at 10uM [%] |
| --- | --- |
| Cc1cc(=O)oc2cc(OCC(=O)NCCCN3CCCC3=O)ccc12 | 29.5 |
| COCCC(=O)N1CCC(Oc2ccc(C(=O)NCc3cc(C)n(C)n3)cc2)CC1 | 17.7 |
| COc1ccc(CCN2CC(C(=O)OCC(=O)N(C)Cc3ccccc3)CC2=O)cc1OC (stereo not shown) | -6.91 |
| Cc1nc(-c2ccc(C(=O)N3CCCC3)cc2)cs1 | 4.74 |
| COc1ccc(NC(=O)CN(Cc2ccccc2)Cc2ccccc2)cc1S(N)(=O)=O | -36.7 |
| COc1ccc(C)cc1-n1nnnc1SCC1CCCCO1 (stereo not shown) | -14.8 |
| O=C(CSC1=NC(=O)C(Cc2ccccc2)C(=O)N1)NC1CCCCC1 (stereo not shown) | 12.1 |
| COc1ccc(C(=O)c2c[nH]c(C(=O)NCc3cccnc3)c2)cc1 | -12.7 |
| Cn1cccc1-c1nc2ccc(NC(=O)c3ccco3)cc2[nH]1 | -21.2 |
| Cc1sc2ncn(CC(=O)N(CC(=O)NC3CCCC3)Cc3cccs3)c(=O)c2c1C | -31.2 |
| COc1cccc(C2c3c(-c4ccccc4O)n[nH]c3C(=O)N2Cc2ccco2)c1 (stereo not shown) | -0.711 |
| COc1ccc(-c2csc3ncnc(N4CCN(c5ccccc5Cl)CC4)c23)cc1 | 17.1 |
| COc1ccc(Cl)cc1C(=O)NC(=S)Nc1nc(C)cc(C)n1 | 3.65 |
| CCOC(=O)c1[nH]c2ccc(OC)cc2c1NC(=O)CN1CCC2(CC1)OCCO2 | 12.3 |
| NC(=O)NC(=O)COC(=O)c1cccc(S(=O)(=O)N2CCCCCC2)c1 | -21.4 |
| O=C(c1ccco1)N1CCN(C(=O)c2ccccc2NS(=O)(=O)c2ccc(F)cc2)CC1 | -12.2 |
| O=C(COC(=O)C1CCN(S(=O)(=O)c2cccc3cccnc23)CC1)c1ccc([N+](=O)[O-])cc1 | 13.1 |
| NC(=O)CCCSc1nc2ccccc2[nH]1 | 13.3 |
| COc1ccc(OCC(O)CNC(C)c2ccccc2)cc1.Cl (stereo not shown) | 5.12 |
| NS(=O)(=O)c1ccc(NNC(=O)c2ccccc2)cc1 | 18.7 |
| COc1ccc(C(=O)N/N=C(\C)CC(=O)Nc2ccc3ccccc3c2)c(OC)c1 | 19.6 |
| COc1ccc(CC(=O)OCn2nnc3ccccc3c2=O)cc1OC | 17.5 |
| Cc1cccc(-c2nc(CS(=O)CC(=O)NCc3ccco3)c(C)o2)c1 (stereo not shown) | -13.1 |
| O=C(NCC(=O)N(CC1CCCO1)C(C(=O)NC1CCCCC1)c1ccccc1)c1ccco1 (stereo not shown) | -0.18 |
| CC(C)C(=O)Nc1ncc(Cc2ccccc2Cl)s1 | 11.7 |
| CCN(CC)CCNC(=O)CCc1n[nH]c(=O)c2ccccc12 | -9.65 |
| c1ccc(Cc2nn3c(COc4ccccc4)nnc3s2)cc1 | 6.61 |
| Cn1c(=O)c(-c2cc(Br)ccc2N)nc2ccccc21 | -29.3 |

| SMILES | hERG current change (%, negative = inhibition) at 10uM [%] |
| --- | --- |
| COc1ccc(CCC(=O)Nc2cccc(S(=O)(=O)N3CCCCCC3)c2)cc1OC | -30.8 |
| NC(=O)c1ccc(NC(=O)COC(=O)CCCN2C(=O)c3cccc4cccc(c34)C2=O)cc1 | 5.32 |
| Cc1ccc(Nc2ncc3c(n2)CC(C)(C)CC3=O)cc1 | -10 |
| Cn1c(NC(=O)c2ccco2)c(-c2ccccc2Cl)c(=O)c2ccccc21 | -3.6 |
| O=C(c1ccco1)N1N=C(c2ccc(Cl)cc2)CC1(O)C(F)(F)F (stereo not shown) | 8.44 |
| CC(=O)Nc1ccc(S(=O)(=O)NCCC(=O)Nc2ccc(C)c(F)c2)cc1 | -0.433 |
| CCOC(=O)C1=C(C(F)(F)F)Nc2ncnn2C1c1cc(OC)ccc1OC (stereo not shown) | 11.5 |
| CN(c1c(C#N)c(C(F)(F)F)nn1C)N(S(C)(=O)=O)S(C)(=O)=O | 14.3 |
| Cc1nn(Cc2ccc(C(=O)NC(C)(C)C)o2)c(C)c1Br | 1.8 |
| CC1(C)C(c2ccccc2)=NC(c2ccc(Br)cc2)N1O (stereo not shown) | 26.1 |
| COCc1cccc(C2=CC(=O)C[C@H](c3ccc(F)cc3)C2)c1 | -20.5 |
| CCC(C)NC(=O)C1CCC(CNS(=O)(=O)c2ccc3c(c2)CC(C)N3C(C)=O)CC1 (stereo not shown) | 3.26 |
| O=C(Nc1ccccc1)c1ccc(N2CCN(c3ccccn3)CC2)c(S(=O)(=O)N2CCOCC2)c1 | -11.3 |
| Cc1cccc(C(=O)NCCNC(=O)c2cccc(C)c2)c1 | -13 |
| O=C1Oc2ccccc2C(=O)/C1=C/N1CCN(c2ccccc2F)CC1 | -0.353 |
| CCCCN(C)C(=O)Cn1nc(-c2ccc(Cl)cc2)ccc1=O | -36.7 |
| COc1ccc(NC2CCCN(C(=O)c3ccc4[nH]c(C)c(C)c4c3)C2)cc1OC (stereo not shown) | 8.71 |
| CCC(=O)N1CCC2(CC1)Oc1ccc(F)cc1C(=O)C21CC(c2cccnc2)=NO1 (stereo not shown) | -7.68 |
| COc1ccc(C(=O)Nc2ccccc2C(=O)N2CCCCCC2)cc1 | 9.26 |
| Cc1nn(C)c(C)c1CCC(=O)N1CCCC(C(=O)c2cccc(OC(C)C)c2)C1 (stereo not shown) | -9.07 |
| COC(=O)c1cc(C(=O)c2cc(F)ccc2O)cn2c(=O)c3c(C)c(C)sc3nc12 | 10.9 |
| Cc1cc(NC(=O)c2ccc(-c3ccccc3F)o2)no1 | 3.01 |
| C=CCN1C(=O)c2ccccc2NC1c1cc(Br)cs1 (stereo not shown) | -11.3 |
| O=C(OCN1C(=O)c2ccccc2C1=O)c1ccco1 | 6.83 |
| O=C(COC(=O)c1ccc([N+](=O)[O-])s1)Nc1ccccc1 | -26 |
| C=CCc1cc(OC)ccc1OCC(O)CN1CCN(c2ccc(OC)cc2)CC1 (stereo not shown) | -59.7 |
| COc1cccc2cc(C(=O)Nc3ccc(S(=O)(=O)NCC4CCCO4)cc3)c(=O)oc12 (stereo not shown) | -22.2 |
